Reference: patent US7541342B2, “Use of PKC-activating compounds as cardioprotectants and as apoptosis-inducing anti-tumor agents” (University of Tennessee Research Foundation, priority 2005, dated 2009)
Structures can show the parent of a compound that is named as a salt. Where a SMILES comes first, the peptide text is derived from it. The star is where a group is joined. Cbz = O=C(OCc1ccccc1)*; CH2F = FC*

How the values were obtained:
[1] = test system: cytochrome c release in 32D.3 cells; test: Immunoblot analysis of cytochrome c release from mitochondria; assay type: cell-based, murine
32D.3 cells [2] = test: Cell viability determination by trypan blue staining
[3] = test system: neonatal rat ventricular myocytes (NRVM); test: ATP content (luciferin/luciferase) in anti-erbB-2 antibody treated NRVM; conditions: 200 nM drug 1 hr prior to anti-erbB-2 antibody
[4] = test system: K562 cells overexpressing P-glycoprotein; test: IC50/IC90 cytotoxicity in drug-sensitive K562 (S) versus P-glycoprotein overexpressing K562 (R)
[5] = cited from earlier work
[6] = Chronic anthracycline cardiotoxicity model (Bertazzoli); conditions: 10 i.v. injections
[7] = test system: Raf-1/Mek/MAPK(erk1,2) pathway; test: MAP kinase phosphorylation immunoblot in K562 cells; conditions: PD98059 20 μM
PKC-δ = test: PKC translocation immunoblot in primary cardiomyocytes; assay type: cell-based, rat; conditions: 0.1 μM, within 5 min
From the text: FIG. 22 is an immunoblot analysis of PKC translocation in drug-treated rat cardiomyocytes. […] Total membrane fractions were isolated by differential centrifugation in the absence of non-ionic detergent, subjected to SDS-PAGE and prepared for immunoblot analysis using antibodies against the PKC isoforms.

32D.3 cells [8] = test: Mitochondrial membrane depolarization ([…] staining); assay type: cell-based, murine; conditions: combined with 5 μM AD 198; rottlerin 10 μM, Z-VAD-FMK 200 μM, CsA 5 μM
HeLa cells = test: Apoptosis by propidium iodide staining and flow cytometry; assay type: cell-based; conditions: 50 μM Z-VAD-FMK or 5 μM CsA, then AD 198 16 hr
Description: (§1) Cell Culture, Transfection, and Treatment: HeLa cells were cultured in Dulbecco's modified Eagle's medium (DMEM) containing 10% fetal bovine serum, 2 mM […] and penicillin (100 units/mL)-streptomycin (100 μg/mL) at 37° C. in a humidified 5% CO2 atmosphere. HeLa cells at 90% confluence were transfected with different mammalian expression vectors using LIPOFECTAMIN™ 2000 transfection reagent according to the manufacturer's protocol (Invitrogen Corporation, Carlsbad, Calif., United States of America). […] For down-regulation of PLS3, HeLa cells at 50% confluence were transfected with siRNA against PLS3 or a scrambled control. […] The whole cell lysate was extracted for analysis with Western blotting.
Analysis of Apoptotic Cells by Flow Cytometry and Determination of the Transmembrane Potential in Mitochondria: Cell death was quantified by TUNEL (Terminal Deoxynucleotidyltransferase-mediated dUTP-biotin Nick End Labeling; Roche Diagnostics, Basel, Switzerland) or propidium iodide (PI) staining, followed by flow cytometry. For TUNEL staining, HeLa cells were fixed with 1% paraformaldehyde for 15 min on ice and 70% ethanol for 1 h at −20° C. […] The fluorescence intensity was analyzed by FACScan (BD Biosciences, San Jose, Calif., United States of America). […] The DNA content per nucleus was evaluated by FACScan. […] The cells were collected and washed with PBS and analyzed by FACScan.

PLS3 = PLS3 threonine phosphorylation (Ni bead pulldown, Western blot); assay type: cell-based; conditions: with 5 μM AD 198 for 2 hr
Description: as §1
Purification of His-tagged Proteins from Transfected HeLa Cells: After washing with ice-cold PBS, HeLa cells transfected with the pCMV-PLS3 or PLS3(T21A) vector were incubated in lysis buffer (50 mM NaH2PO4, 500 mM NaCl, 20 mM imidazole, 1% Triton X-100, 20 mM 2-mercaptoethanol, pH 8.0) for 5 min and sonicated briefly on ice. The lysates were centrifuged at 10,000×g for 10 min at 4° C. […] Protein concentrations of the supernatants were measured with the Bio-Rad protein assay (Bio-Rad Laboratories, Hercules, Calif., United States of America) and each sample was adjusted to the same concentration. […] After washing, the beads were resuspended in SDS buffer and analyzed by Western blotting. […]

K562 cells = test: Cytotoxicity analysis in K562 cells; conditions: 10 μM, 72 hrs of exposure

CNc1ccc2oc(C[C@H]3O[C@@]4(CC[C@H]3C)O[C@H]([C@H](C)C(=O)c3ccc[nH]3)[C@H](C)C[C@H]4C)nc2c1C(=O)O [A23187, reference compound]
effect of BAPTA/EGTA treatment on drug-induced cytochrome c release ([1]; 5 μM AD 198, 5 μM AD 445, 10 μM A23187): blocked | cell kill beyond that observed with BAPTA/EGTA alone (32D.3 cells [2]; with BAPTA-AM/EGTA treatment, after 6 hr): less than 15% | cell kill (32D.3 cells [2]; within 1 hr of treatment): > 90%

COc1cccc2c1C(=O)c1c(O)c3c(c(O)c1C2=O)C[C@@](O)(C(=O)CO)CC3O[C@H]1C[C@H](NCc2ccccc2)[C@H](O)[C@H](C)O1 (some centres unmarked) [AD 288, N-Benzyladriamycin]
ATP depletion by anti-erbB-2 antibody after drug pretreatment [3]: increased ATP depletion | resistance of P-glycoprotein expressing K562 cells [4]: highly resistant

COc1cccc2c1C(=O)c1c(O)c3c(c(O)c1C2=O)C[C@@](O)(C(=O)CO)C[C@@H]3O[C@H]1C[C@H](N)[C@H](O)[C@H](C)O1 [DOX, Doxorubicin]
mortality after two years without transplantation ([5]; after DOX-induced congestive heart failure): 50% | frequency of heart failure ([5]; human, in vivo): 26% | Affected Hearts (%) ([6]; dose 1.2 mg/kg): 90% | MTS ([6]; dose 1.2 mg/kg): 0.7 | Affected Hearts (%) ([6]; dose 2.3 mg/kg): 100% | MTS ([6]; dose 2.3 mg/kg): 1.9 | Affected Hearts (%) ([6]; dose 4.6 mg/kg): 100% | MTS ([6]; dose 4.6 mg/kg): 6.1 | ATP depletion by anti-erbB-2 antibody after drug pretreatment [3]: increased ATP depletion | resistance of P-glycoprotein expressing K562 cells [4]: highly resistant

COc1cccc(-c2cc(=O)c3ccccc3o2)c1N [PD98059, reference compound]
effect on AD 198-induced phosphorylation of MAPK [7]: inhibited

CCCCCCCCCCCCCC(=O)O[C@@H]1[C@@H](C)[C@@]2(O)[C@@H](C=C(CO)C[C@]3(O)C(=O)C(C)=C[C@@H]23)[C@@H]2C(C)(C)[C@]12OC(C)=O [PMA, reference compound]
translocation of PKC-δ (PKC-δ): Marginal translocation

COC(=O)CC(NC(=O)C(C)NC(=O)C(NC(=O)OCc1ccccc1)C(C)C)C(=O)CF (stereo not drawn) [Z-VAD-FMK, reference compound] (Cbz-Val-Ala-Asp(OMe)-CH2F; configuration not given here)
effect on AD 198-induced Δψm (mitochondrial depolarization) (32D.3 cells [8]): fails to inhibit | effect on AD 198-induced apoptosis (HeLa cells): did suppress | effect on AD 198-induced PLS3 phosphorylation (PLS3): not affected

Cc1ccc(NC(=O)c2ccc(CN3CCN(C)CC3)cc2)cc1Nc1nccc(-c2cccnc2)n1 [imatinib, imatinib mesylate]
cell kill (K562 cells): approximately 70%

CC(=O)c1c(O)c(C)c(O)c(Cc2c(O)c3c(c(C(=O)/C=C/c4ccccc4)c2O)OC(C)(C)C=C3)c1O [rottlerin, reference compound]
effect on AD 198-induced Δψm (mitochondrial depolarization) (32D.3 cells [8]): preserves punctate fluorescence | effect on AD 198-induced cytochrome c release ([1]; combined with 5 μM AD 198, rottlerin 10 μM, cyclosporine A 5 μM): inhibits cytochrome c release
